# Test results: article PMC4336329 (PLoS ONE, 2015)
# Out of some 310,000 compounds screened, about 2,200 (0.71%) showed an effect of 50% or more. The effect is printed as a negative number. This is one part of the list.
# Molecular target: human ether-à-go-go-related gene (hERG) potassium channel (human, UniProt Q12809)
# Assay: primary screen, population patch clamp on CHO cells stably expressing hERG
# human ether-à-go-go-related gene (hERG) potassium channel, sequence (Q12809 whole entry, looked up): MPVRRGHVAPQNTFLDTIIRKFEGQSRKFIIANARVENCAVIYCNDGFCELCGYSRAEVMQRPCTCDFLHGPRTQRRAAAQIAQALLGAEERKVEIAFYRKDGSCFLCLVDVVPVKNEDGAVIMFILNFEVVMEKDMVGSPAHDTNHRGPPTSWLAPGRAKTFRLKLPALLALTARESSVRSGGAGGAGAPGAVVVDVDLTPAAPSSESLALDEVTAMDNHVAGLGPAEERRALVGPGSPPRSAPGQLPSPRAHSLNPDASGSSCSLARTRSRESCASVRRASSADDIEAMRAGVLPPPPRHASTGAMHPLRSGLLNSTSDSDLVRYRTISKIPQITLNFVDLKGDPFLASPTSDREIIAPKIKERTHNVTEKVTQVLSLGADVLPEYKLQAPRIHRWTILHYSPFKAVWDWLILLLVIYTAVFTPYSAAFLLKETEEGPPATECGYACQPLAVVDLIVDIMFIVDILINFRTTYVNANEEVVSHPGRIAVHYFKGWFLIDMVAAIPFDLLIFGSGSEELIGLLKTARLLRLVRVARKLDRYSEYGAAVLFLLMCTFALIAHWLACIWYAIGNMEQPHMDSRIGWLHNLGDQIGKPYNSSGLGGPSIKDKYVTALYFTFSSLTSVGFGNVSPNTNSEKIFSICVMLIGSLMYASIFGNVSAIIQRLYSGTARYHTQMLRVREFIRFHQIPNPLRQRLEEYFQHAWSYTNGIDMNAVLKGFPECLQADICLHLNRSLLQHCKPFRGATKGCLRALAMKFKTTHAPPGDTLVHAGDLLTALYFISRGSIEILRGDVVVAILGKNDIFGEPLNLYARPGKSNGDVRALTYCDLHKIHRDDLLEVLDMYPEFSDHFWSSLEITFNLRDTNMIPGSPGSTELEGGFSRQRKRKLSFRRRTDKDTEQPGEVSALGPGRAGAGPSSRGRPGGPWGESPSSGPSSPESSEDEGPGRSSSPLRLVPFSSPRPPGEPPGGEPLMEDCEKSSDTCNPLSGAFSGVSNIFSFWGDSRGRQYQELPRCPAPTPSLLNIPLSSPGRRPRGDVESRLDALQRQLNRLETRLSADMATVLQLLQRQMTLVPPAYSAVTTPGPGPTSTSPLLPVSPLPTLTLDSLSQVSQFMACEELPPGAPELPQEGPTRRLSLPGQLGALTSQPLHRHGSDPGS
row,SMILES,"hERG current change (%, negative = inhibition) at 1uM"
1,O=C(CNc1ccc(Br)cc1)c1ccc(Br)s1,12.9%
2,O=C(c1cc(-c2ccccn2)nc2ccccc12)N1CCN(c2ncccn2)CC1,-8.44%
3,CC(C)(C#N)NC(=O)C(=O)c1c(-c2ccccc2)cc2ccccn12,1.84%
4,CC(=O)N1CCN(CC(O)COc2ccc(Br)cc2)CC1.O=C(O)C(=O)O (stereo not shown),4.55%
5,Cc1ccc(NC(=O)c2cc(S(=O)(=O)N3CCOCC3)c(Br)s2)cc1,13.2%
6,CCn1c(SCC(=O)Nc2ccc(C)cc2)nc(O)cc1=O,7.96%
7,N#Cc1c(N2CCNCC2)nc(-c2ccco2)c2c1CCCC2,13.6%
8,CS(=O)(=O)N1N=C(c2cccs2)CC1c1ccc(Cl)o1 (stereo not shown),6.92%
9,NNC(=O)CCS(=O)(=O)c1ccc2ccccc2c1,17%
10,CC1CCCC(C)N1C(=O)c1ccc(S(=O)(=O)N2CCCC2)cc1 (stereo not shown),6.18%
11,O=C(CSc1nnc(-c2c[nH]c3ccccc23)n1-c1ccc(F)cc1)NCc1ccco1,-0.439%
12,Cn1c(=O)c2c(nc(CN3CCCCC3)n2CCCc2ccccc2)n(C)c1=O,0.681%
13,COCc1cc(CN2CCCC(C(=O)c3cccc(C(F)(F)F)c3)C2)ccc1OC (stereo not shown),-1.37%
14,Cc1ccccc1C(=O)NC1CCN(CC(=O)N2CCCCC2C)CC1 (stereo not shown),10.5%
15,CCO[C@@H]1OC(C(=O)N2CCN(C)CC2)=C[C@H](c2csc3ccccc23)[C@H]1CCCO,0.669%
16,CC(=O)CSc1nc2ccccc2o1,13.9%
17,COc1cc2cc(C(c3nnnn3C(C)(C)C)N3CCc4ccccc43)c(=O)[nH]c2cc1OC (stereo not shown),0.194%
18,COc1ccc(C(CC(=O)c2ccccc2)S(=O)(=O)c2ccc(C)cc2)cc1 (stereo not shown),13.9%
19,CC(C)NCCOCCSc1ccc(Cl)cc1.O=C(O)C(=O)O,-15.9%
20,COCCN1C=C2C(=O)C(C)(OC(=O)C3CCCC3)C(=O)C(c3ccccc3)=C2C=C1CCCC(=O)OC (stereo not shown),4.56%
21,O=C(c1ccccc1)C1CN(c2ccccc2)CC1c1ccc(Cl)cc1 (stereo not shown),21.4%
22,CCCCn1c(N)c(N(CC(C)C)C(=O)c2cc(=O)[nH]c3ccccc23)c(=O)[nH]c1=O,4.05%
23,CCCN(CCC)Cc1c(C(=O)N/N=C/c2ccc(C)o2)nnn1-c1nonc1N,9.95%
24,COc1ccc(OC)c(C(c2nnnn2C2CCCC2)N2CCc3ccccc3C2)c1 (stereo not shown),-6.55%
25,CC(C)CC(=O)NCC(C)NC(=O)CC(C)C (stereo not shown),0.917%
26,O=C(NC1CCCc2ccccc21)C1CCC(CNS(=O)(=O)c2cccc3nsnc23)CC1 (stereo not shown),0.23%
27,CC(C)(C)c1cc(CCC(=O)NCC2CCCO2)cc(C(C)(C)C)c1O (stereo not shown),12.9%
28,CCOC(=O)Nc1nc(C)c(C(=O)c2ccc(Cl)cc2)s1,21.6%

row,SMILES,"hERG current change (%, negative = inhibition) at 1uM"
1,O=c1[nH]c2ccc(NC(=S)NCCc3ccccc3)cc2[nH]1,6.17%
2,N#Cc1ccccc1S(=O)(=O)Nc1ccc2c(c1)OCCO2,14.1%
3,O=C1C2CCCN2C(c2ccccc2F)N1c1ccc(Cl)cc1 (stereo not shown),8.03%
4,O=c1ccc(S(=O)(=O)N2CCC(Cc3ccccc3)CC2)c[nH]1,6.01%
5,N#Cc1ccccc1-n1c(N)c(C(=O)N2CCCC2)sc1=S,-1.76%
6,O=C(N/N=C/c1ccc([N+](=O)[O-])o1)C(O)c1ccccc1 (stereo not shown),2.98%
7,Cc1cc(OC(=O)c2cccc([N+](=O)[O-])c2)c(C)cc1CN1CCOCC1,14.4%
8,CC(=O)c1c(C)nc(-c2ccc3c(c2)OCO3)n1O,9.89%
9,CC(C)CC(=O)O/N=C1\C(=O)N(c2ccccc2)c2ccccc21,15.3%
10,Cc1ccc(C)c(S(=O)(=O)N2CCC3(CC2)OCCN3S(=O)(=O)c2cccs2)c1,6.67%
11,CCCCCN(C(=O)CCC(=O)OCCOc1ccc(OC)cc1)c1c(N)n(CCCC)c(=O)[nH]c1=O,5.05%
12,CCOC(=O)c1ccccc1NC(=O)CSc1nnc(C(C)C)n1CC,8.81%
13,O=C(CN1C(=O)C(=O)c2ccccc21)OCN1C(=O)c2ccccc2C1=O,19.6%
14,CC(=O)Nc1ccc(S(=O)(=O)Nc2nc3ccccc3nc2Nc2ccc(O)cc2)cc1,13.4%
15,Cc1ccsc1C(=O)C1CCCN(Cc2cc(F)ccc2-n2cccn2)C1 (stereo not shown),-45.5%
16,CC1(C)C(N(O)C(=O)Nc2ccc(Cl)cc2)N(c2ccc(Cl)cc2)C(=O)N1CC(=O)NN (stereo not shown),-5.8%
17,COC(=O)c1nn(-c2ccc(OC)cc2)c(=O)cc1Oc1cccc(Cl)c1,-0.405%
18,COc1ccc(OC)c(N(CC(=O)NCCSCc2ccc(C)cc2)S(C)(=O)=O)c1,7.2%
19,CC(=O)Nc1ccc(S(=O)(=O)NC2(C(F)(F)F)C(=O)Nc3c2c(=O)n(C)c(=O)n3C)cc1 (stereo not shown),6.29%
20,COc1cc(C(O)P(=O)(OCCC(C)C)c2ccc(N(C)C)cc2)cc(OC)c1OC (stereo not shown),10.7%
21,Cc1ccc(C(C)C)c(OCCNS(C)(=O)=O)c1,9.91%
22,COc1ccc(C(=O)Nn2c(SCC(=O)N3CCC(C)CC3)nc3ccccc3c2=O)cc1,0.232%
23,COc1ccc(N2CCN(c3oc(COc4ccccc4Cl)nc3C#N)CC2)cc1,16.7%
24,Cc1ccc(S(=O)(=O)N2CCCCC2C(=O)O)cc1 (stereo not shown),8.79%
25,O=C(c1c(O)c2ccccc2oc1=O)C1CCC1,4.07%
26,CC1(C)Cc2c(sc3ncn4c(=S)[nH]nc4c23)CO1,22.8%
27,CCCn1c(=N)n(CCOc2ccc(OC)cc2)c2ccccc21,-22%
